Paper PMC6919601, “Identification of Plasmodium dipeptidyl aminopeptidase allosteric inhibitors by high throughput screening” (PLoS ONE, 2019)
The campaign covered roughly 110,000 compounds. About 230 (0.21%) showed an effect of 50% or more. Some of the results follow.

Each compound was assayed against DPAP1 (Plasmodium falciparum, UniProt Q8IIJ9) (assay: primary screen, percent inhibition; read by cleavage of a fluorogenic dipeptide substrate; higher = more effect of the substance).
Parameters: species or system P. falciparum D10 trophozoite lysates; single well
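Note: 30 min substrate incubation versus DMSO and 10 µM JCP410 controls.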

DPAP1, sequence (Q8IIJ9 whole entry, looked up): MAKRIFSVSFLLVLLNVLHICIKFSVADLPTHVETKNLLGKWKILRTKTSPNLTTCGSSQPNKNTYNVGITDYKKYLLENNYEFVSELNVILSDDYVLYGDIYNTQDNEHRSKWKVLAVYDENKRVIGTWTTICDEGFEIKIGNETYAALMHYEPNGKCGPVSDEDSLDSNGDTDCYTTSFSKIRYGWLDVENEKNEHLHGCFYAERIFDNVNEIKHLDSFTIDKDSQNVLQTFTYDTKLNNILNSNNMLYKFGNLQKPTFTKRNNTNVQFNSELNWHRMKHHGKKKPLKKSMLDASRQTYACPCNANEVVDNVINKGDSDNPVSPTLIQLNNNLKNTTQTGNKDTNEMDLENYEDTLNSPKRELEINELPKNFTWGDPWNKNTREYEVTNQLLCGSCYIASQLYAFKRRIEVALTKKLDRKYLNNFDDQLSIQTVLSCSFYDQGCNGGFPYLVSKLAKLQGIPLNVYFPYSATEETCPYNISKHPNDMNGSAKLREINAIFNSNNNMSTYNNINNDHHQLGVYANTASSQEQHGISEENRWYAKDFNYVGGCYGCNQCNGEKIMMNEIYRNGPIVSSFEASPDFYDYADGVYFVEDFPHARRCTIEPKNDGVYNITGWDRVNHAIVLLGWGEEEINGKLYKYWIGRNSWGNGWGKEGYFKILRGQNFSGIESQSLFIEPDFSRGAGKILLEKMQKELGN

SMILES | % Inhibition @ 10 uM
Cc1ccc(C2C(C#N)=C(N)SC(N)=C2C#N)c(C)c1 | 27.4%
CSc1nc2c(c(=O)[nH]c(=O)n2C)n1Cc1ccc(C)cc1 | 4.09%
CC(=O)NC1=NC(=O)/C(=C/c2cccc(F)c2)S1 | -5.92%
O=C(CN(c1ccccc1Cl)S(=O)(=O)c1ccccc1)NC1CC2CCC1C2 (stereo not shown) | -1.71%
CCOC(=O)N1CCN(C/C(Cl)=C/c2ccccc2)CC1 | -2.34%
Oc1nnnc2c1sc1nc(-c3ccccc3)cc(-c3ccccc3)c12 | -0.808%
O=C(Cn1c(-c2cccs2)cc2ccccc21)NCc1ccco1 | -1.6%
COc1ccc2c(c1)c(C(=O)N1CCN(C)CC1)c(C)n2C | 5.65%
CC(=O)N1c2ccccc2-[n+]2ccsc2CC1C (stereo not shown) | 3.91%
CCn1c(C)c(C)c2cc(C(=O)NCCCc3ccccc3)ccc21 | -5.09%
COc1cc(/C=C/c2nc(C#N)c(NCc3ccc(C)cc3)o2)cc(OC)c1OC | 4.13%
O=C(Cc1ccccc1)N1CCN(Cc2cccc(Br)c2)CC1 | 0.528%
CCC(Oc1ccccc1)C(=O)Nc1ncccc1Cl (stereo not shown) | -3.75%
CCOC(=O)NC(=O)c1cn(Cc2ccc(Cl)cc2)c(=O)[nH]c1=O | -3.37%
CC(=O)c1cccc(NC(=O)C2CC2c2ccccc2)c1 (stereo not shown) | -0.312%
O=C(CCN1CCCCC1)Nc1ccc(C2CCCC2)cc1 | 4.11%
O=C(O)c1ccccc1C(=O)Nc1cc(Cl)ccc1Cl | 4.64%
CCCCNC(=O)CN(C1CCCCC1)S(C)(=O)=O | 3.21%
COC(=O)C1=C(C)N(C)C(C)=C(C(=O)OC)C1c1cccc(Cl)c1Cl | 6.12%
CCOC(=O)c1c(NC(=O)CSc2cc(C)c3ccc(OC)cc3n2)sc(C(=O)OC)c1C | 1.58%
Cc1oc2cc3oc(=O)ccc3cc2c1C | -1.15%
O=C(COc1ccc2ccccc2c1Br)N1CCc2ccccc21 | -3.37%
COCCN1C(=O)c2ccccc2C(C(=O)NCCCN2CCCC2)C1c1c[nH]c2ccccc12 (stereo not shown) | 4.05%
CCCc1cc(O)nc(SCC(=O)Nc2ccccc2C(F)(F)F)n1 | -7.06%
COC(=O)c1c(Sc2ccccc2)c2ccccc2n1C | -0.0309%
COC(=O)c1ccc(/C=C2\N=C(c3ccc(F)cc3)OC2=O)cc1 | 2.92%

SMILES | % Inhibition @ 10 uM
CC1CC(C)CN(C(=O)c2cc3c(s2)-c2ccccc2OC3)C1 (stereo not shown) | -4.85%
COc1ccc2c(CNCc3ccc4c(c3)OCO4)c(C(=O)O)[nH]c2c1 | -4.16%
COc1ccc(S(=O)(=O)NCc2ccco2)cc1C | 4.25%
O=C(Nc1ccccn1)c1ccc(C(F)(F)F)cc1 | -2.98%
CC(=O)c1ccc(NC(=O)COc2cc(C)ccc2C)cc1 | 3.35%
COc1ccc(CCNC(=O)Cc2c(C)c3cc4c(C)coc4cc3oc2=O)cc1 | -0.808%
Cn1c(=O)c2c(nc(NCCCN3CCOCC3)n2C)n(C)c1=O | 6.97%
CCOc1ccccc1C(=O)Nc1ccc(F)c(Cl)c1 | -1.24%
O=C(NCc1ccc(Cl)cc1)c1cc(-c2ccccn2)nc2ccccc12 | 2.9%
CC(C)=CCC[C@H](C)CCN1CCCC(O)C1 (stereo partly shown) | 3.15%
CCOC(=O)/C(C#N)=C/c1c(Oc2cccc(C)c2C)nc2c(C)cccn2c1=O | -7.04%
O=C(NCCCCNC(=O)C1CCCC1)C1CCCC1 | 4.11%
COc1ccc(CCNC(=O)c2noc3c2COc2ccc(C)cc2-3)cc1OC | -4.07%
CCc1cccc2c(C#N)cn(CC(N)=O)c12 | -0.105%
O=C(NCc1ccco1)/C(=C/c1ccco1)NC(=O)c1ccccc1 | -0.988%
CC1CCCCC1N(C)C1CCN(CCCNC(=O)/C=C/c2cccc(C(F)(F)F)c2)CC1 (stereo not shown) | -2.85%
Cc1cc(C)n(-c2ccc(C(=O)Nc3ccccn3)cc2)n1 | 1.87%
CC1CCCCC1NC(=O)c1cnn2c(C(F)(F)F)cc(-c3cccs3)nc12 (stereo not shown) | 4.36%
Cc1ccc(C)n1-c1nnc(N2CCC(C(=O)N3CCC(N4CCCCC4)CC3)CC2)s1 | 4.22%
CCC(CCC(=O)Nc1ccn(-c2ccccc2)n1)C(=O)O (stereo not shown) | -1.52%
COc1cccc(N(CC(=O)Nc2ccccc2C(C)C)S(C)(=O)=O)c1 | -1.2%
CCc1ccc(S(=O)(=O)/N=C2\C=C(NS(=O)(=O)c3ccccc3)C(=O)c3ccccc32)cc1 | -1.52%
Cc1sc2ncnc(N3CCN(Cc4ccccc4)CC3)c2c1C | -7.18%
c1nc(NC2CCCCC2)c2c3c(sc2n1)CCCC3 | -2.51%
CC1=C(C(=O)Nc2cccc(C)n2)C(c2ccc(C)cc2)C2=C(O)CC(C)(C)CC2=N1 (stereo not shown) | 2.51%
O=C(O)c1cccc(NS(=O)(=O)c2cccc(S(=O)(=O)c3ccc(Cl)cc3)c2)c1 | 3.25%

SMILES | % Inhibition @ 10 uM
Cn1c(=O)n(Cc2ccc(Br)cc2)c(=O)c2c1nc1n2CCN1Cc1ccco1 | 1.42%
O=C1CSC2(N1)C1CC3CC(C1)CC2C3 (stereo not shown) | -2.44%
COc1ccc(C)cc1NC(=O)NC1CCCCC1 | 0.331%
CC(=O)c1c(C(C)=O)c(C)n(-c2cc(C)ccc2C)c1C | 1.03%
Cc1ccc(-n2nc3c(=O)n(CCCC(=O)NCCN4CCOCC4)nc(C)c3c2C)cc1 | -8.76%
O=C(Nc1cccc(NC(=O)c2cccs2)c1)c1ccccc1 | -1.79%
CC1=CC(C)=Nc2ccccc2N1 | -0.274%
O=C(CSc1c(O)nc2ccc(Cl)cc2c1-c1ccccc1)N1CCOCC1 | -9.59%
O=C1C2C(C(=O)N1CCO)C1C=CC2C12CC2 (stereo not shown) | -0.988%
O=C(NCc1ccc2c(c1)OCO2)C1CCN(S(=O)(=O)c2c[nH]cn2)CC1 | 2.9%
COc1ccc(NC(=O)c2cccnc2)cc1 | 1.38%
O=S(=O)(c1ccc(-c2cs/c(=N\c3ccccc3)n2-c2ccccc2)cc1)N1CCOCC1 | 8.26%
Cc1ccc(S(=O)(=O)Nc2ccccc2/N=C/c2ccc(Br)cc2)cc1 | -2.6%
COc1cc(C)c(CN2CC(C)CC(C)C2)cc1C (stereo not shown) | -1.5%
CC(NC(=O)C(=O)Nc1cccc(C(F)(F)F)c1)c1ccccc1 (stereo not shown) | -1.75%
Cc1c(C)n(CC(O)CN2CCCCCC2)c2ccccc12 (stereo not shown) | -1.57%
COc1ccc(-c2noc(C(=O)NC(C)c3ccccc3)n2)cc1OC (stereo not shown) | 2.77%
O=C(Nc1sc2c(c1C(=O)O)CCCC2)c1cccc(Cl)c1 | 8.21%
COc1ccc(CC(=O)Nc2ccc(C)cc2C)cc1 | -3.27%
COc1cc(C(=O)Nc2cc(C)cc(C)c2)cc(OC)c1OC | 5.06%
CC1SC(c2ccccc2)N(Cc2ccccc2)C1=O (stereo not shown) | -2.42%
COC(=O)c1ccc(C2C=C(c3ccc(C(C)C)cc3)Nc3nnnn32)cc1 (stereo not shown) | -1.48%
CCOC(=O)c1[nH]c(C)c(C(=O)NCCN(C)C)c1C | 3.32%
CCCCc1c(C)nc2ccc(C(=O)O)cc2c1Cl | -1.99%
O=S(=O)(Nc1nc2c(s1)CCCC2)c1ccc(F)cc1 | -10.7%
CSc1ncc(-n2c(-c3ccccc3)cs/c2=N\C(=O)c2ccccc2)cn1 | -4.18%

SMILES | % Inhibition @ 10 uM
COC(=O)c1ccc(Oc2nc(C)cc(N)n2)cc1 | -2.87%
COc1ccc(NC(=O)C2CC2(c2ccc(C)cc2)c2ccc(C)cc2)cc1 (stereo not shown) | 3.32%
CC(C)CC1=NC(C(F)(F)F)(C(F)(F)F)N=C(N2CCCCC2)O1 | 4.94%
O=C1/C(=C/c2ccco2)CCc2ccccc21 | -2.95%
Nc1ncnc2c1nc(SCCO)n2Cc1ccccc1 | -0.45%
Cc1sc2c(c1C)c(=O)n(CCc1ccccc1)c(=O)n2Cc1cc(=O)n2ccccc2n1 | 1.76%
CCOC(=O)c1noc2ncnc(N(Cc3ccco3)C3CCCCC3)c12 | 4.48%
Cc1noc2ncnc(NCCN3CCC(C)CC3)c12 | 1.06%
CCOc1cc(C2C3=C(O)CCCC3=NC(C)=C2C(=O)N2CCOCC2)ccc1O (stereo not shown) | 1.86%
O=C(NCC1CCCO1)C1CCN(C(=O)c2cnn(-c3ccccc3)c2-n2cccc2)CC1 (stereo not shown) | 4.76%
Fc1ccc(CNc2ccccn2)cc1 | -0.551%
CCO/C(O)=C/C(C)=N/c1nc2ccccc2s1 | -0.148%
O=C(Nc1ccc(N2C(=O)c3cccnc3C2=O)cc1)c1ccco1 | -2.32%
CN1CCN(S(=O)(=O)c2ccccc2)CC1 | -0.127%
CCN(CC)S(=O)(=O)N1CCC(C(=O)N2CCC3(CC2)OCCO3)CC1 | -4.06%
CCCOc1ccc(N2C(=O)CC(N3CCC(C(=O)O)CC3)C2=O)cc1 (stereo not shown) | -2.63%
CCC[C@H](NC(=O)[C@@H](CC(C)C)NC(=O)c1ccc(N2CCN(C)CC2)cc1)C(=O)c1nnc(-c2ccccc2OC)o1 | -8.26%
CC[C@H](NC(=O)[C@H](CC(C)C)NC(C)=O)C(=O)c1nc2ccccc2o1 | 1.35%
OCCC1CCCCN1C1CCC(c2ccccc2)CC1 (stereo not shown) | 1.57%
Oc1nc(-c2ccccc2)cc(-c2ccccc2O)n1 | 0.215%
COc1ccc(NC(=O)c2cccnc2Cl)cc1 | 25.9%
CCOC(=O)C1CCN(Cc2cccc(Cl)c2)CC1 | 6.06%
CCC(C)NC(=O)c1ccc(CS(=O)(=O)Cc2cccc(C)c2)o1 (stereo not shown) | -1.79%
Cc1ccc(-c2noc(CSc3nc(C)cc(O)n3)n2)cc1 | -1.11%
CN1CCN(Cc2cccc(Br)c2)CC1 | -3.13%
